Data from publication PMC3513311.
These are yes or no findings as the source states them, for the method shown. Binding seen in cells or lysates may run through a third protein. Some binding calls cover weakened binding; strength is not graded here. Where a sequence is shown, tags or fusion partners need not be part of it.

What was measured:
[1] = molecular target: T1, C-terminally FLAG-tagged Csy1 (Pectobacterium atrosepticum SCRI1043) (UniProt Q6D0W8); test: co-IP; P. atrosepticum WT strain (chromosomal Cas/Csy proteins and crRNAs present); N- or C-terminally FLAG-tagged bait and N-terminally His-tagged prey co-expressed; anti-FLAG agarose; Western blot with anti-His
T1 sequence: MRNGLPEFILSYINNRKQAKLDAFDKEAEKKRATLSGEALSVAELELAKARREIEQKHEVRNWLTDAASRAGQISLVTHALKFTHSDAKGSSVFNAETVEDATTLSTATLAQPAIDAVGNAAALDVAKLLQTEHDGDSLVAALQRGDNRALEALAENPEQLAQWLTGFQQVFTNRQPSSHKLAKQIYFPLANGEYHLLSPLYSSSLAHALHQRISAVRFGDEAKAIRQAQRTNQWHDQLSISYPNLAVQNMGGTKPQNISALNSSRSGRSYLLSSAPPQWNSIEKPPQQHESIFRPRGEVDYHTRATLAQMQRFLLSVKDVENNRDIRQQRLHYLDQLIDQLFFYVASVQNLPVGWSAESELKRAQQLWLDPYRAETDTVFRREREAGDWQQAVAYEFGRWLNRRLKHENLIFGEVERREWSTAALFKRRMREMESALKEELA

[2] = molecular target: T2, N-terminally FLAG-tagged Csy1 (Pectobacterium atrosepticum SCRI1043) (UniProt Q6D0W8); test: as above
T2 sequence: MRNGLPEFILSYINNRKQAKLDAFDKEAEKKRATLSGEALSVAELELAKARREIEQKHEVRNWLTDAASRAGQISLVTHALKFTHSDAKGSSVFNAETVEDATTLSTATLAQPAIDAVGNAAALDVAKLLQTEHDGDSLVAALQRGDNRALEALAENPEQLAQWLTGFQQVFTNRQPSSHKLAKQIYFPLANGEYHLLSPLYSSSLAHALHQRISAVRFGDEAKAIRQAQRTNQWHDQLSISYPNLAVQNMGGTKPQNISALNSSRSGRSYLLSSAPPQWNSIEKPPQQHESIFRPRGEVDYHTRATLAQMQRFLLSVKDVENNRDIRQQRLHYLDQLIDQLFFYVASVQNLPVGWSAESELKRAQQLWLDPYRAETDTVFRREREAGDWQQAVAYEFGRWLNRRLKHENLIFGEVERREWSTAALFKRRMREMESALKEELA

[3] = molecular target: T3, N-terminally FLAG-tagged Csy2 (Pectobacterium atrosepticum SCRI1043) (UniProt Q6D0W7); test: as above
T3 sequence: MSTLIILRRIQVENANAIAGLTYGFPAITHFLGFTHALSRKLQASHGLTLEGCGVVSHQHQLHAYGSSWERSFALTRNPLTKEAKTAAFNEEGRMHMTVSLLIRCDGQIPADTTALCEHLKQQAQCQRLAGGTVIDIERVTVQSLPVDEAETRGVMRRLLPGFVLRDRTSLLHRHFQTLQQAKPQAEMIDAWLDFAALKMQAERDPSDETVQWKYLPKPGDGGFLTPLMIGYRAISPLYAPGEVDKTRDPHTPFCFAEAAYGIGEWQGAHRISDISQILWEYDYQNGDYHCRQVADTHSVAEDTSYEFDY

[4] = molecular target: T2, N-terminally FLAG-tagged Csy1 (Pectobacterium atrosepticum SCRI1043); test: co-IP; P. atrosepticum Δcas strain (no cas1, cas3, csy1-3, cas6f operon, no mature crRNAs); N- or C-terminally FLAG-tagged bait and N-terminally His-tagged prey co-expressed; anti-FLAG agarose; Western blot with anti-His
[5] = molecular target: T3, N-terminally FLAG-tagged Csy2 (Pectobacterium atrosepticum SCRI1043); test: as above
[6] = molecular target: T1, C-terminally FLAG-tagged Csy1 (Pectobacterium atrosepticum SCRI1043); test: condition: only in the Δcas strain (no other Cas or Csy proteins, no mature crRNAs); co-IP; P. atrosepticum Δcas strain (no cas1, cas3, csy1-3, cas6f operon, no mature crRNAs); N- or C-terminally FLAG-tagged bait and N-terminally His-tagged prey co-expressed; anti-FLAG agarose; Western blot with anti-His
[7] = molecular target: T1, C-terminally FLAG-tagged Csy1 (Pectobacterium atrosepticum SCRI1043); test: co-IP; P. atrosepticum Δcas strain (no cas1, cas3, csy1-3, cas6f operon, no mature crRNAs); N- or C-terminally FLAG-tagged bait and N-terminally His-tagged prey co-expressed; anti-FLAG agarose; Western blot with anti-His

Binder	binding [1]	binding [2]	binding [3]	binding [4]	binding [5]	binding [6]	binding [7]
N-terminally His-tagged Csy2 (protein, UniProt Q6D0W7 1-310) MSTLIILRRIQVENANAIAGLTYGFPAITHFLGFTHALSRKLQASHGLTLEGCGVVSHQHQLHAYGSSWERSFALTRNPLTKEAKTAAFNEEGRMHMTVSLLIRCDGQIPADTTALCEHLKQQAQCQRLAGGTVIDIERVTVQSLPVDEAETRGVMRRLLPGFVLRDRTSLLHRHFQTLQQAKPQAEMIDAWLDFAALKMQAERDPSDETVQWKYLPKPGDGGFLTPLMIGYRAISPLYAPGEVDKTRDPHTPFCFAEAAYGIGEWQGAHRISDISQILWEYDYQNGDYHCRQVADTHSVAEDTSYEFDY	binds	binds	no binding	binds	no binding	no binding	–
N-terminally His-tagged Csy1 (protein, UniProt Q6D0W8 1-443) MRNGLPEFILSYINNRKQAKLDAFDKEAEKKRATLSGEALSVAELELAKARREIEQKHEVRNWLTDAASRAGQISLVTHALKFTHSDAKGSSVFNAETVEDATTLSTATLAQPAIDAVGNAAALDVAKLLQTEHDGDSLVAALQRGDNRALEALAENPEQLAQWLTGFQQVFTNRQPSSHKLAKQIYFPLANGEYHLLSPLYSSSLAHALHQRISAVRFGDEAKAIRQAQRTNQWHDQLSISYPNLAVQNMGGTKPQNISALNSSRSGRSYLLSSAPPQWNSIEKPPQQHESIFRPRGEVDYHTRATLAQMQRFLLSVKDVENNRDIRQQRLHYLDQLIDQLFFYVASVQNLPVGWSAESELKRAQQLWLDPYRAETDTVFRREREAGDWQQAVAYEFGRWLNRRLKHENLIFGEVERREWSTAALFKRRMREMESALKEELA	no binding	no binding	binds	no binding	binds	–	no binding
